M. abscessus ATCC 19977 and its deletion, point and complemented mutants after 5 days of drug at 37 °C plus 24 h of resazurin. Growth in % of untreated wells at the dose given (lower = more inhibition); checkerboards give % inhibition (higher = more inhibition); IC50 from the fitted curve (lower = more potent). No active / inactive call. IC50 values come from the same 384-well curves. Growth is not capped and can exceed 100%. The direction of the checkerboard scale is read from the raw signals. Capreomycin is a mixture.
Legend:
Test in all cases: growth relative to untreated wells; higher = more growth
[1] = tested on: Mycobacterium abscessus ATCC 19977 ΔwhiB7
Description: (§1)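 Two-fold dose series, three replicates; 5 days at 37 °C, then 24 h with resazurin; fluorescence scaled to growth and killed controls.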

[2] = tested on: Mycobacterium abscessus ATCC 19977 Δcat
Description: as §1

[3] = tested on: Mycobacterium abscessus ATCC 19977
Description: as §1

CS(=O)(=O)c1ccc([C@@H](O)[C@H](N)CO)cc1 [thiamphenicol amine]
growth [%]
Conditions | 1 µg/mL | 2 µg/mL | 4 µg/mL | 8 µg/mL | 16 µg/mL | 32 µg/mL | 64 µg/mL | 128 µg/mL | 256 µg/mL | 512 µg/mL
[1] | 89 | 88.7 | 92.1 | 83.2 | 90.71 | 97.6 | 107 | 102 | 94.1 | 2.08
[2] | 88.5 | 97.7 | 81.9 | 65.4 | 53.7 | 37.4 | 18 | -1.25 | -2.68 | -0.742
[3] | 97.7 | 92.2 | 96.7 | 88.9 | 94.6 | 88.3 | 89.8 | 82.4 | 74.3 | 31.4
